Reference: PubChem BioAssay AID624296 (National Center for Advancing Translational Sciences (NCATS), 2012)
Screen size: about 350,000 compounds; about 9,900 (2.8%) were called active. The inconclusive results got no clear call from the source; some entries with a clear call stand among them for comparison. The call rests on the fitted dose curve; in most records, active means well fitted activation curve with a large enough effect; inconclusive means small, poorly fitted or top-dose-only effect; inactive means no such curve, though single readings can be large or run the other way. Potencies of inconclusive entries are left out as doubtful fits.
Potency means the concentration at half of the fitted maximal effect; tags describe the fitted curve by direction and shape.

Experiment: A quantitative high throughput screen for small molecules that induce DNA re-replication in MCF 10a normal breast cells. Further: nearly all actives have a fitted effect of over 50% in size.
Conditions: MCF 10A DNA re-replication, Hoechst nuclear intensity, 48 h; series mostly up to 46.1 µM
In the case of `CCOCCCNC(=O)/C(C#N)=C/c1ccc(Cl)c([N+](=O)[O-])c1`, the Potency is reported as active: 18.4 µM.
In the case of `O=C(NC12CC3CC(CC(C3)C1)C2)c1ccc([N+](=O)[O-])cc1`, the Potency is reported as inconclusive [activator, single point].
With `Cc1cc(=O)n2c(c1C#N)SC1CCCCC12O` (configuration not stated) the Potency was inconclusive [activator, single point].
With `COc1cccc(NC(=O)CN(C)C(=O)CN2C(=O)c3ccc([N+](=O)[O-])cc3C2=O)c1` the Potency was inconclusive [activator, partial curve, poor fit].
In the case of `Cc1cc2cc(CN(CC3CCCO3)C(=S)Nc3ccccc3)c(=O)[nH]c2cc1C` (configuration not stated), the Potency is reported as active: 10.3 µM.
For `COc1ccc(Cl)cc1NC(=O)CN(C)C(C)C(=O)NC(=O)NC1CCCCC1` (configuration not stated), the Potency was inconclusive [activator, single point].
In the case of `CCC/C(C#Cc1ccc(N(C)C)cc1)=C1/c2ccccc2C(=O)N1c1ccccc1`, the Potency is reported as inconclusive [activator, full curve, poor fit].
In the case of `CCCCC[C@H](O)/C=C/[C@H]1CCC(=O)[C@@H]1CCCCCCC(=O)N1CCCCC1CO` (some centres not stated), the Potency is reported as inconclusive [activator, partial curve].
With `CC1(C)Cc2c(C#N)c(OCC(=O)c3ccc(Cl)cc3)nc(-c3ccoc3)c2CO1` the Potency was inconclusive [activator, full curve, poor fit].
For `COc1ccc(NC(=O)/C(C#N)=C\c2ccc(N3CCOCC3)o2)cc1`, the Potency was inconclusive [activator, single point].
For `CCCN(CC(=O)Nc1ccccc1OC)C(=O)CSc1ccc(Br)cc1C`, the Potency was inconclusive [activator, full curve, poor fit].
For `Cn1c(C2=C(O)CN(Cc3ccccc3)C2=N)[n+](C)c2ccccc21`, the Potency was inconclusive [activator, partial curve, poor fit].
For `CCC(C)NC(=O)CSc1nnc(-c2ccc(C(C)(C)C)cc2)n1C` (configuration not stated), the Potency was inconclusive [activator, single point].
With `COc1ccc(C)cc1NC(=O)CSc1nnc(COc2ccc(Cl)cc2)n1Cc1ccco1` the Potency was inconclusive [activator, partial curve].
With `O=C(NCCc1ccccc1)c1ccc(NC(=O)C2CCC2)cc1` the Potency was “inactive”.
In the case of `CCn1cc(C(c2ccccc2)C(C(C)=O)[N+](=O)[O-])c2ccccc21` (configuration not stated), the Potency is reported as inconclusive [activator, single point].
For `Cc1sc2ncnc(N3CCCCC3C)c2c1C` (configuration not stated), the Potency was inconclusive [activator, partial curve, poor fit].
For `CCn1c(=O)c(=O)[nH]c2cc(C(=O)NCc3ccc(F)cc3)ccc21`, the Potency was “inactive”.
With `C/C=C/c1ccc(OCc2cc(=O)n3cc(C)ccc3n2)c(OC)c1` the Potency was “inactive”.
In the case of `Cc1cccc(OCC(=O)NCC(=O)N/N=C/c2cc(Br)cc(Br)c2O)c1`, the Potency is reported as inconclusive [activator, partial curve, poor fit].
In the case of `COC(=O)c1cc(=O)n(CCc2ccccc2)c(=Nc2ccc(F)cc2)s1`, the Potency is reported as inconclusive [activator, single point].
With `Clc1ccc2nc(COc3ccccc3)[nH]c2c1` the Potency was active: 3.26 µM.
In the case of `CC1CCCCC1NC(=S)Nc1ccc(SC(F)F)cc1` (configuration not stated), the Potency is reported as inconclusive [activator, single point].
For `COc1ccc(S(=O)Cc2ccc(C(=O)N3CCN(c4cccc(C)c4C)CC3)o2)cc1` (configuration not stated), the Potency was “inactive”.
With `Cc1ccc(-n2cccc2C(=S)N=P(N(C)C)(N(C)C)N(C)C)cc1` the Potency was inconclusive [activator, partial curve, poor fit].
With `CCOC(=O)C1=C(C)Nc2nc3ccccc3n2C1c1ccccc1` (configuration not stated) the Potency was “inactive”.
In the case of `COc1ccccc1CNC(=O)C(Cc1ccccc1)NC(=O)c1ccccc1` (configuration not stated), the Potency is reported as inconclusive [activator, full curve, poor fit].
For `O=S1(=O)N=C(N(CCO)/N=C/C=C/c2ccccc2)c2ccccc21`, the Potency was inconclusive [activator, single point].
For `Clc1cccc(Cl)c1CO/N=C/c1c(-c2ccccc2)nc2n1CCS2`, the Potency was inconclusive [activator, partial curve].
For `COc1cccc(NC(=O)Nc2nc(SC(C)(C)C)ns2)c1`, the Potency was inconclusive [activator, single point].
With `COc1ccc2nc(NC(=O)c3ccc(NS(=O)(=O)c4cccs4)cc3)sc2c1` the Potency was inconclusive [activator, single point].
With `Cc1nn(C2CCS(=O)(=O)C2)c2nc(C3CC3)cc(C(=O)Nc3ccc(C(N)=O)cc3)c12` (configuration not stated) the Potency was “inactive”.
For `Cc1ccnc(NC(=S)N2CCN(c3cccc(C(F)(F)F)c3)CC2)c1`, the Potency was inconclusive [activator, single point].
With `COc1ccc(CCNC(=S)NC(=O)c2ccc(Br)cc2)cc1OC` the Potency was inconclusive [activator, partial curve].
With `C=CCn1c(COc2ccccc2F)nnc1SCC(=O)c1c[nH]c2ccccc12` the Potency was “inactive”.
In the case of `O=C1C2C3C=CC(C4CC34)C2C(=O)N1/N=C/c1ccc(-c2ccc(F)cc2[N+](=O)[O-])o1` (configuration not stated), the Potency is reported as “inactive”.
With `Cc1ccc(-n2ncc3c(=O)n(CC(=O)NCc4ccco4)cnc32)cc1C` the Potency was inconclusive [activator, partial curve, poor fit].
For `CCC(C)N(C(=O)CSc1nnc2ccccn12)C1CCS(=O)(=O)C1` (configuration not stated), the Potency was inconclusive [activator, single point].
For `O=C(N/N=C/c1ccc2c(c1)OCO2)c1ccc(NC(=O)c2ccccc2Cl)cc1`, the Potency was inconclusive [activator, partial curve, poor fit].
With `Cc1ccc(C(=O)N2CCC3CC2c2cc(-c4ccc5c(c4)OCO5)ccc23)cc1` (configuration not stated) the Potency was inconclusive [activator, single point].
In the case of `Cc1ccc(-c2csc3nc[nH]c(=S)c23)cc1C`, the Potency is reported as inconclusive [activator, single point].
With `CCC(C)c1ccccc1NC(=O)c1cc2cccc([N+](=O)[O-])c2[nH]1` (configuration not stated) the Potency was inconclusive [activator, single point].
With `O=C(O)c1ccc(/C=C/c2nc3sc4c(c3c(=O)[nH]2)CCC4)cc1` the Potency was inconclusive [activator, partial curve].
With `CC(C)N1CCC(N2CCN(Cc3ccc(-c4ccccc4Cl)o3)CC2CCO)CC1` (configuration not stated) the Potency was inconclusive [activator, single point].
For `O=S(=O)(NC1c2cccc3cccc(c23)C1N1CCNCC1)c1ccccc1` (configuration not stated), the Potency was “inactive”.
In the case of `CCOC(=O)C1=C(COC(=O)c2c(OC)cccc2OC)NC(=O)NC1C` (configuration not stated), the Potency is reported as inconclusive [activator, full curve, poor fit].
In the case of `COC(=O)c1sccc1NC(=O)c1c(C)c(-c2cccc(Cl)c2)nc2ccccc12`, the Potency is reported as “inactive”.
In the case of `Cn1c(=O)c2c(nc(CN3CCN(c4ccccc4)CC3)n2CCc2ccccc2)n(C)c1=O`, the Potency is reported as inconclusive [activator, single point].
In the case of `O=C(Nc1ccc(F)cc1)c1cccc(N2C(=O)C3C4C=CC(C5CC45)C3C2=O)c1` (configuration not stated), the Potency is reported as “inactive”.
For `COc1ccc(-c2cc(C(=O)Nc3cccnc3)no2)cc1OC`, the Potency was “inactive”.
In the case of `COC(=O)/C(=N/Nc1ccc(C)cc1)N1CCCc2ccccc21`, the Potency is reported as inconclusive [activator, single point].
With `Cc1ccc(Sc2c(CO)c(-c3ccccc3)nn2C)cc1` the Potency was active: 1.03 µM.
With `CCc1cc(C(=O)N(C)CC(=O)Nc2c(Cl)cccc2Cl)sc1C` the Potency was “inactive”.
For `COc1ccc(C(C(=O)NC2CCCC2)N(CCCO)C(=O)c2snc(C(N)=O)c2N)cc1` (configuration not stated), the Potency was “inactive”.
For `CCSc1nnc(-c2ccc(S(=O)(=O)NCc3cccs3)cc2)o1`, the Potency was inconclusive [activator, full curve, poor fit].
For `COc1ccc(CSCC(=O)Nc2ccccc2SC)cc1`, the Potency was inconclusive [activator, single point].
For `COc1ccc(/C=C2\SC(=S)N(CCCCCC(=O)Nc3cc(C)on3)C2=O)cc1OC`, the Potency was “inactive”.
In the case of `O=c1[nH]c(=O)n(-c2ccccc2)c2c1C(C(F)(F)F)(C(F)(F)F)N=C(CCC1CCCCC1)N2`, the Potency is reported as active: 16.4 µM.
With `Clc1ccc2oc3c(Cl)ncnc3c2c1` the Potency was inconclusive [activator, single point].
With `COc1ccccc1NC(=S)NCc1ccc2c(c1)OCO2` the Potency was inconclusive [activator, full curve, poor fit].
With `COc1ccccc1C1=CC(=O)CCC1` the Potency was “inactive”.
With `Cc1ccc(S(=O)(=O)N2CCN(C)CC2)c(C)c1N(C)S(=O)(=O)c1ccc(Cl)cc1` the Potency was inconclusive [activator, partial curve].
In the case of `CCC(CO)Oc1cc(NCc2ccccc2C(F)(F)F)c2ncn(C(C)C)c2c1` (configuration not stated), the Potency is reported as inconclusive [activator, single point].
For `NC(=O)c1cc([N+](=O)[O-])ccc1NCc1ccc(O)cc1`, the Potency was inconclusive [activator, partial curve].
With `O=C(CN1C(=O)c2ccccc2C1=O)Nc1ccccc1C(=O)N1CCCC1` the Potency was inconclusive [activator, partial curve, poor fit].
With `Fc1ccc(C2NC(=S)NC3=C2N2CCC3CC2)cc1` (configuration not stated) the Potency was active: 13 µM.
In the case of `O=C(O)COCC(=O)NCc1csc2ccccc12`, the Potency is reported as inconclusive [activator, full curve, poor fit].
